# From PubChem BioAssay (Tox21)
# The inconclusive results got no clear call from the source; some entries with a clear call stand among them for comparison. For part of these data: Potencies of inconclusive entries are doubtful fits and often do not repeat. The source made the active and inactive calls. Unless noted, the call rests on the fitted dose curve; in most records, active means well fitted curve in the direction sought with a large enough effect in the repeat runs; inconclusive means weak or mixed curves; inactive means no such curve, though single readings can be large; an effect the other way counts as inactive or inconclusive.
# Experiments:
# [1] = qHTS assay to identify small molecule antagonists of the estrogen related receptor (ERR) signaling pathway from Tox21 library - cell viability counter screen (AID 1224834); further: potency means the concentration at half of the fitted maximal effect; nearly all actives have a fitted effect of over 30% in size
# Method in brief: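 CellTiter-Fluor fluorescence measured; ERR cells; 17.5 h compound incubation at 37 C; 30 min reagent step.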
# [2] = qHTS assay to identify small molecule antagonists of the constitutive androstane receptor (CAR) signaling pathway - cell viability counter screen (AID 1224837); further: potency means the concentration at half of the fitted maximal effect; nearly all actives have a fitted effect of over 45% in size
# Method in brief: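 Using CellTiter-Fluor, viability is scored in HepG2 cells stably carrying hCAR and a 2.2kb CYP2B6 reporter after 23 hr compound exposure across 15 concentrations, with CITCO present at 50 nM.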
# [3] = biological target: Nuclear receptor subfamily 1 group I member 3 (Homo sapiens) (UniProt Q14994); assay: qHTS assay to identify small molecule antagonists of the constitutive androstane receptor (CAR) signaling pathway (AID 1224838);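 further: HepG2 cells stably expressing hCAR with CYP2B6 luciferase reporter stimulated by CITCO; potency means the concentration at half of the fitted maximal effect; nearly all actives have a fitted effect of over 40% in size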
# Method in brief: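 Reporter luminescence was quantified after 24 h exposure of hCAR/CYP2B6-2.2kb double-stable HepG2 cells to compounds at 15 concentrations in the presence of 50 nM CITCO final.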
# [4] = qHTS assay to identify small molecule antagonists of the estrogen related receptor signaling pathway with the pleiotropic PPARgamma coactivator (PGC) from Tox21 10K library - cell viability counter screen (AID 1224840; active means well fitted cell-killing curve with a large enough effect in the repeat runs, not every such curve was filed as active; inconclusive means weak or mixed curves, or effect the other way; inactive means no such curve, though single readings can be large or run the other way; further: potency means the concentration at half of the fitted maximal effect; nearly all actives have a fitted effect of over 40% in size)
# Method in brief: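 Here the PGC/ERR cells serve as a cytotoxicity control: they are exposed to compounds for 17.5 hours at 37 C, and live-cell signal is quantified using CellTiter-Fluor fluorescence.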
# [5] = biological target: Thyrotropin receptor (Homo sapiens) (UniProt P16473); assay: qHTS assay to identify small molecule agonists of the thyroid stimulating hormone receptor (TSHR) signaling pathway (AID 1224843; calls by dose curve; further: on the % scale 0 is the no-effect control and ±100 the full control effect; nearly all actives have a fitted effect of over 45% in size); details: TSHR-HEK293 cells, cAMP HTRF, agonist mode, 30 min; activation: at 92.4 µM (top of the series) unless noted
# Method in brief: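 Screening of the Tox21 10K collection used HEK293 cells engineered with TSHR at 800 cells per well. After a 30-min room-temperature compound exposure, HTRF cAMP reagents were added and fluorescence recorded 1 h later.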
# [6] = qHTS assay to identify small molecule agonists of the hypoxia (HIF-1) signaling pathway - cell viability counter screen (AID 1224844; calls by dose curve; further: potency means the concentration at half of the fitted maximal effect; nearly all actives have a fitted effect of over 50% in size)
# Method in brief: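 Multiplexed with the HRE beta-lactamase assay, this viability read used CellTiter-Glo luminescence (30 min, RT) on HRE-bla ME-180 cells treated 17 hrs with compounds in 0.5% dialyzed FBS medium.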
# [7] = qHTS assay to identify small molecule antagonists of the estrogen related receptor (ERR) signaling pathway from Tox21 library (AID 1224848); further: potency means the concentration at half of the fitted maximal effect; nearly all actives have a fitted effect of over 50% in size
# Method in brief: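 Antagonist-mode screen of the Tox21 10K library in an NTP-provided ERR reporter cell line; 18 h compound exposure at 37 C, luminescence measured with ONE-Glo.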
# [8] = qHTS RealTime-Glo MT Cell Viability Assay in HEK293 cells - 32 hour (AID 1224868); further: potency means the concentration at half of the fitted maximal effect; nearly all actives have a fitted effect of over 50% in size
# Method in brief: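 Viability tracked continuously by luminescence as live cells reduce a prosubstrate for NanoLuc; HEK293 cells preincubated 5 h, compound-treated at 37 C, and read at 0, 8, 16, 24, 32 and 40 h.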
# [9] = qHTS assay to identify small molecule agonists of the constitutive androstane receptor (CAR) signaling pathway - cell viability counter screen (AID 1224836); further: potency means the concentration at half of the fitted maximal effect; nearly all actives have a fitted effect of over 45% in size
# Method in brief: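 HepG2 cells stably carrying hCAR and a CYP2B6-2.2kb reporter were plated 4 h, then given compounds at 15 concentrations plus PK11195 (final 0.75 uM). After 23 h at 37 C, viability was read by CellTiter-Fluor fluorescence.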
# [10] = qHTS assay to identify small molecule agonists of H2AX (AID 1224845; active means well fitted activation curve with a large enough effect in the signal ratio in the repeat runs, not every such curve was filed as active; inconclusive means weak or mixed curves; the % refers to the signal ratio; further: potency means the concentration at half of the fitted maximal effect); details: CHO-K1 phospho-H2AX Ser139 HTRF, 3 h; activation (H2AX phosphorylation): at 154 µM (top of the series) unless noted
# Method in brief: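 Phospho-H2AX Ser139 measured by HTRF (ex 320 nm; em 665 and 620 nm) after 24 hr antibody incubation. Compounds, 15 concentrations, 0.76% DMSO, were applied to CHO-K1 cells for 3hr at 37C before lysis.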
# [11] = qHTS assay to identify small molecule agonists of H2AX - cell viability counter screen (AID 1224847; calls by dose curve; further: potency means the concentration at half of the fitted maximal effect; nearly all actives have a fitted effect of over 30% in size)
# Method in brief: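 Wild-type CHO-K1 cells (10% FBS medium) were plated overnight at 37C, exposed to compounds at 15 concentrations for 3 hr at 37C (0.76% DMSO final), and viability was read as CellTiter-Glo luminescence after 30 min at room temperature.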
# [12] = qHTS RealTime-Glo MT Cell Viability Assay in HepG2 cells - 24 hour (AID 1224867); further: potency means the concentration at half of the fitted maximal effect; nearly all actives have a fitted effect of over 50% in size
# Method in brief: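 Viability was tracked continuously by NanoLuc luminescence from prosubstrate reduced by living HepG2 cells, at successive time points over 40 h of compound exposure. Cells with reagent were preincubated 5 h at 37 °C before compound addition.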
# Tags describe the fitted curve by direction and shape or compound fluorescence and quenching.
# UniProt Q14994, sequence (Q14994 whole entry, looked up): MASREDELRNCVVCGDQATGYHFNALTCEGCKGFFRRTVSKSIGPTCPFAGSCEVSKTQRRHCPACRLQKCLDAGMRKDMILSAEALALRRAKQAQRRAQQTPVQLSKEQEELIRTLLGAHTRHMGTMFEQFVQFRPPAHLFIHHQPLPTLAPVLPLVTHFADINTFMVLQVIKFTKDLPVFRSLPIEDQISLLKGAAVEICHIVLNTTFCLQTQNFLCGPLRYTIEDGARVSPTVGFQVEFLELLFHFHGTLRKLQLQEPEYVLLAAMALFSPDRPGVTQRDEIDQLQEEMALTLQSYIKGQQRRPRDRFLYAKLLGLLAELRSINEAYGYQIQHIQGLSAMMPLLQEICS
# UniProt P16473, sequence (P16473 whole entry, looked up): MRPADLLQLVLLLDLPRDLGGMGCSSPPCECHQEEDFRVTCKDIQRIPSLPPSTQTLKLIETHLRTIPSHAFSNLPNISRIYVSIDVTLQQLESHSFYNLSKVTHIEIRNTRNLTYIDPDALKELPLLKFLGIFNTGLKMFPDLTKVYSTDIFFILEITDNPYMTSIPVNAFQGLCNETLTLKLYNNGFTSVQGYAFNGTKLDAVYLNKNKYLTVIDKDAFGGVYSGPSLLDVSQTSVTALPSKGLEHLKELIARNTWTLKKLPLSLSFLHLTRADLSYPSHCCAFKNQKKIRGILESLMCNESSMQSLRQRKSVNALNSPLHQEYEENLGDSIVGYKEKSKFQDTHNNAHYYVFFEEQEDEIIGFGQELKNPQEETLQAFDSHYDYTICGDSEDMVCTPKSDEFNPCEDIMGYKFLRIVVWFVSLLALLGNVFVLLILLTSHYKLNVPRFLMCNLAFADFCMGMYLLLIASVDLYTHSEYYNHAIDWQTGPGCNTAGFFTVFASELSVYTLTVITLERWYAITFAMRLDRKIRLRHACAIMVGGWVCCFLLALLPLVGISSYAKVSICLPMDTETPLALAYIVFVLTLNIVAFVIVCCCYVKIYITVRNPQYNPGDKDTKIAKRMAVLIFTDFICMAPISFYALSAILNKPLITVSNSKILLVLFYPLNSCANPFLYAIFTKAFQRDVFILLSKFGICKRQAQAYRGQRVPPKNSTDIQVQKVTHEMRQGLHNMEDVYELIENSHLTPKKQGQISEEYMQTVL
SMILES,Potency [1],Potency [2],Potency [3],Potency [4],Potency [5],Potency [6],Potency [7],Potency [8],Potency [9],activation [5],Potency [10],Potency [11],Potency [12]
CCCOC(C(=O)OC1CCN(C)CC1)(c1ccccc1)c1ccccc1,"inconclusive: 29.8 µM [cytotoxic, partial curve]","inconclusive: 18.8 µM [cytotoxic, partial curve, poor fit]","inconclusive: 3.35 µM [inhibitor, single point]","inconclusive: 33.5 µM [cytotoxic, single point]",inactive,"inconclusive: 19 µM [cytotoxic, partial curve]","inconclusive: 29.8 µM [inhibitor, single point]","inconclusive: 19 µM [cytotoxic, partial curve]",,,,,
COCCCCCCCCOCCC[Si](C)(O[Si](C)(C)C)O[Si](C)(C)C,"inconclusive: 21.7 µM [cytotoxic, full curve]","inconclusive: 27.3 µM [cytotoxic, partial curve]",active: 48.6 µM,"inconclusive: 19.3 µM [cytotoxic, partial curve]",,,,,"inconclusive: 17.2 µM [cytotoxic, full curve]",inconclusive: -28.9%,,,
CNCCCCOc1ccccc1Cc1ccccc1,"inconclusive: 33.5 µM [cytotoxic, single point]","inconclusive: 29.8 µM [cytotoxic, single point]","inconclusive: 33.5 µM [inhibitor, single point]",active: 29.8 µM,,,,,,,inconclusive: 61.9 µM [activator],"inconclusive: 55.2 µM [cytotoxic, single point]","inconclusive: 26.8 µM [falling, single point]"
